# Toxic doses and inconclusive results are not listed. Certain results were filed several times, with different values. The list is limited to them. The source may hold further records. Results that share an entry differ, and nothing given here explains why; they may come from other doses, times, organisms or constructs than stated.
# Tested on: L1210 leukemia ip in BDF1 mice, survival T/C
# Assay: NCI In Vivo Anticancer Drug Screen. Data for tumor model L1210 Leukemia (intraperitoneal) in B6D2F1 (BDF1) mice
# Conditions: endpoint: mean survival time, higher = longer survival
structure (smiles),measurement,setting,value
CC[CH2][Sn]([Cl])([Cl])[CH2]CC.Oc1ccccc1C=NCCN=Cc1ccccc1O,T/C,"dose: 10.0 mg/kg/injection, schedule: Q01DX009 (ip), vehicle: saline with Tween-80",114 % of control and 200 % of control
COc1cc(NS(C)(=O)=O)ccc1Nc1c2ccccc2nc2c(C)cccc12,T/C,"dose: 10.0 mg/kg/injection, schedule: Q01DX009 (ip), vehicle: saline",86 % of control and 179 % of control
NC(=O)c1cn(C2OC(CO)C(O)C2O)c2ncnc(N)c12 (centres undefined),T/C,"dose: 1.0 mg/kg/injection, schedule: Q## X003 (ip), vehicle: saline",113 % of control and 155 % of control
same,T/C,"dose: 4.0 mg/kg/injection, schedule: Q## X003 (ip), vehicle: saline",124 % of control and 184 % of control

# — PubChem BioAssay AID248 (DTP/NCI, 2004)
